# This is one part of the list.
# B1: RBMC2 (Vibrio cholerae) (protein)
# chain: KISVRSGFAIDAIGASASTLVGGTGGNLNAAVNVKDIKAIDLTWGKYYWGGYHLLALDFRMSNGSVISMGSKNYAYSKQTERFTVPAGSRIKGIKAWTAGWLLDGVQFELA
# How the values were obtained:
# Experiment in all cases: glycan array binding signal (z-score within array); higher = stronger binding
# Settings in all cases: glycan notation: IUPAC condensed, linker removed
# GlcNAc(b1-3)Gal(b1-4)Glc = target: GlcNAc(b1-3)Gal(b1-4)Glc
# Summary of the method: (§1)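 The binding signal is a Z-score computed within each array. Data were drawn from 3228 arrays in the Consortium for Functional Glycomics database, restricted to those with a known protein sequence. Scores were averaged over arrays of the same protein sequence at different concentrations or buffers, and over linkers, and negative values can be taken as non-binding.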
# [1] = target: GlcNAc(b1-3)Gal(b1-4)GlcNAc
# Summary of the method: as §1
# [2] = target: GlcNAc(b1-3)Gal(b1-4)GlcNAc(b1-2)Man(a1-3)[GlcNAc(b1-3)Gal(b1-4)GlcNAc(b1-2)Man(a1-6)]Man(b1-4)GlcNAc(b1-4)GlcNAc
# Summary of the method: as §1
# [3] = target: GlcNAc(b1-3)Gal(b1-4)GlcNAc(b1-2)Man(a1-3)[GlcNAc(b1-3)Gal(b1-4)GlcNAc(b1-2)Man(a1-6)]Man(b1-4)GlcNAc(b1-4)[Fuc(a1-6)]GlcNAc
# Summary of the method: as §1
# [4] = target: GlcNAc(b1-3)Gal(b1-4)GlcNAc(b1-2)[GlcNAc(b1-3)Gal(b1-4)GlcNAc(b1-6)]Man(a1-6)[GlcNAc(b1-3)Gal(b1-4)GlcNAc(b1-2)Man(a1-3)]Man(b1-4)GlcNAc(b1-4)GlcNAc
# Summary of the method: as §1
# [5] = target: GlcNAc(b1-3)Gal(b1-4)GlcNAc(b1-3)Gal(b1-4)GlcNAc
# Summary of the method: as §1
# [6] = target: GlcNAc(b1-3)Gal(b1-4)GlcNAc(b1-3)Gal(b1-4)GlcNAc(b1-2)Man(a1-3)[GlcNAc(b1-3)Gal(b1-4)GlcNAc(b1-3)Gal(b1-4)GlcNAc(b1-2)Man(a1-6)]Man(b1-4)GlcNAc(b1-4)GlcNAc
# Summary of the method: as §1
# [7] = target: GlcNAc(b1-3)Gal(b1-4)GlcNAc(b1-3)Gal(b1-4)GlcNAc(b1-2)Man(a1-3)[GlcNAc(b1-3)Gal(b1-4)GlcNAc(b1-3)Gal(b1-4)GlcNAc(b1-2)Man(a1-6)]Man(b1-4)GlcNAc(b1-4)[Fuc(a1-6)]GlcNAc
# Summary of the method: as §1
# [8] = target: GlcNAc(b1-3)Gal(b1-4)GlcNAc(b1-3)Gal(b1-4)GlcNAc(b1-2)[GlcNAc(b1-3)Gal(b1-4)GlcNAc(b1-3)Gal(b1-4)GlcNAc(b1-6)]Man(a1-6)[GlcNAc(b1-3)Gal(b1-4)GlcNAc(b1-3)Gal(b1-4)GlcNAc(b1-2)Man(a1-3)]Man(b1-4)GlcNAc(b1-4)[Fuc(a1-6)]GlcNAc
# Summary of the method: as §1
# [9] = target: GlcNAc(b1-3)Gal(b1-4)GlcNAc(b1-3)Gal(b1-4)GlcNAc(b1-3)Gal(b1-4)GlcNAc(b1-2)Man(a1-3)[GlcNAc(b1-3)Gal(b1-4)GlcNAc(b1-3)Gal(b1-4)GlcNAc(b1-3)Gal(b1-4)GlcNAc(b1-2)Man(a1-6)]Man(b1-4)GlcNAc(b1-4)GlcNAc
# Summary of the method: as §1
# [10] = target: GlcNAc(b1-3)Gal(b1-4)GlcNAc(b1-3)Gal(b1-4)GlcNAc(b1-3)Gal(b1-4)GlcNAc(b1-2)Man(a1-3)[GlcNAc(b1-3)Gal(b1-4)GlcNAc(b1-3)Gal(b1-4)GlcNAc(b1-3)Gal(b1-4)GlcNAc(b1-2)Man(a1-6)]Man(b1-4)GlcNAc(b1-4)[Fuc(a1-6)]GlcNAc
# Summary of the method: as §1
# [11] = target: GlcNAc(b1-3)Gal(b1-4)GlcNAc(b1-3)Gal(b1-4)GlcNAc(b1-3)Gal(b1-4)GlcNAc(b1-2)[GlcNAc(b1-3)Gal(b1-4)GlcNAc(b1-3)Gal(b1-4)GlcNAc(b1-3)Gal(b1-4)GlcNAc(b1-6)]Man(a1-6)[GlcNAc(b1-3)Gal(b1-4)GlcNAc(b1-3)Gal(b1-4)GlcNAc(b1-3)Gal(b1-4)GlcNAc(b1-2)Man(a1-3)]Man(b1-4)GlcNAc(b1-4)[Fuc(a1-6)]GlcNAc
# Summary of the method: as §1
# [12] = target: GlcNAc(b1-3)Gal(b1-4)GlcNAc(b1-3)Gal(b1-4)GlcNAc(b1-3)Gal(b1-4)GlcNAc(b1-3)Gal(b1-4)GlcNAc(b1-2)Man(a1-3)[GlcNAc(b1-3)Gal(b1-4)GlcNAc(b1-3)Gal(b1-4)GlcNAc(b1-3)Gal(b1-4)GlcNAc(b1-3)Gal(b1-4)GlcNAc(b1-2)Man(a1-6)]Man(b1-4)GlcNAc(b1-4)GlcNAc
# Summary of the method: as §1
# [13] = target: GlcNAc(b1-3)Gal(b1-4)GlcNAc(b1-3)Gal(b1-4)GlcNAc(b1-3)Gal(b1-4)GlcNAc(b1-3)Gal(b1-4)GlcNAc(b1-2)Man(a1-3)[GlcNAc(b1-3)Gal(b1-4)GlcNAc(b1-3)Gal(b1-4)GlcNAc(b1-3)Gal(b1-4)GlcNAc(b1-3)Gal(b1-4)GlcNAc(b1-2)Man(a1-6)]Man(b1-4)GlcNAc(b1-4)[Fuc(a1-6)]GlcNAc
# Summary of the method: as §1
# [14] = target: GlcNAc(b1-3)Gal(b1-4)GlcNAc(b1-3)Gal(b1-4)GlcNAc(b1-3)Gal(b1-4)GlcNAc(b1-3)Gal(b1-4)GlcNAc(b1-2)[GlcNAc(b1-3)Gal(b1-4)GlcNAc(b1-3)Gal(b1-4)GlcNAc(b1-3)Gal(b1-4)GlcNAc(b1-3)Gal(b1-4)GlcNAc(b1-6)]Man(a1-6)[GlcNAc(b1-3)Gal(b1-4)GlcNAc(b1-3)Gal(b1-4)GlcNAc(b1-3)Gal(b1-4)GlcNAc(b1-3)Gal(b1-4)GlcNAc(b1-2)Man(a1-3)]Man(b1-4)GlcNAc(b1-4)[Fuc(a1-6)]GlcNAc
# Summary of the method: as §1
# [15] = target: GlcNAc(b1-3)Gal(b1-4)GlcNAc(b1-3)Gal(b1-4)GlcNAc(b1-3)GalNAc
# Summary of the method: as §1
# [16] = target: GlcNAc(b1-3)Gal(b1-4)GlcNAc(b1-3)GalNAc
# Summary of the method: as §1
# [17] = target: GlcNAc(b1-3)Gal(b1-4)GlcNAc(b1-3)[GlcNAc(b1-3)Gal(b1-4)GlcNAc(b1-3)]GalNAc
# Summary of the method: as §1
# [18] = target: GlcNAc(b1-3)Gal(b1-4)GlcNAc(b1-6)[Gal(b1-3)]GalNAc
# Summary of the method: as §1
# [19] = target: GlcNAc(b1-3)Gal(b1-4)GlcNAc(b1-6)[GlcNAc(b1-3)Gal(b1-3)]GalNAc
# Summary of the method: as §1
# [20] = target: GlcNAc(b1-3)Gal(b1-4)GlcNAc(b1-6)[GlcNAc(b1-3)]Gal(b1-4)GlcNAc
# Summary of the method: as §1
# GlcNAc(b1-3)GalNAc = target: GlcNAc(b1-3)GalNAc
# Summary of the method: as §1
# GlcNAc(b1-3)Man = target: GlcNAc(b1-3)Man
# Summary of the method: as §1
# [21] = target: GlcNAc(b1-3)[GlcNAc(b1-4)][GlcNAc(b1-6)]GlcNAc
# Summary of the method: as §1
# [22] = target: GlcNAc(b1-3)[GlcNAc(b1-6)]Gal(b1-4)GlcNAc
# Summary of the method: as §1
# [23] = target: GlcNAc(b1-3)[GlcNAc(b1-6)]GalNAc
# Summary of the method: as §1
# [24] = target: GlcNAc(b1-4)Gal(b1-4)GlcNAc
# Summary of the method: as §1
# GlcNAc(b1-4)GlcNAc = target: GlcNAc(b1-4)GlcNAc
# Summary of the method: as §1
# [25] = target: GlcNAc(b1-4)GlcNAc(b1-4)GlcNAc
# Summary of the method: as §1
# [26] = target: GlcNAc(b1-4)GlcNAc(b1-4)GlcNAc(b1-4)GlcNAc(b1-4)GlcNAc
# Summary of the method: as §1
# [27] = target: GlcNAc(b1-4)GlcNAc(b1-4)GlcNAc(b1-4)GlcNAc(b1-4)GlcNAc(b1-4)GlcNAc
# Summary of the method: as §1
# [28] = target: GlcNAc(b1-4)[GlcNAc(b1-6)]GalNAc
# Summary of the method: as §1
# [29] = target: GlcNAc(b1-6)Gal(b1-4)GlcNAc
# Summary of the method: as §1
# GlcNAc(b1-6)GalNAc = target: GlcNAc(b1-6)GalNAc
# Summary of the method: as §1
# [30] = target: GlcNAc6S(b1-3)Gal(b1-4)GlcNAc
# Summary of the method: as §1
# Kdn(a2-3)Gal(b1-3)GalNAc = target: Kdn(a2-3)Gal(b1-3)GalNAc
# Summary of the method: as §1
# Kdn(a2-3)Gal(b1-3)GlcNAc = target: Kdn(a2-3)Gal(b1-3)GlcNAc
# Summary of the method: as §1
# Kdn(a2-3)Gal(b1-4)Glc = target: Kdn(a2-3)Gal(b1-4)Glc
# Summary of the method: as §1
# Kdn(a2-3)Gal(b1-4)GlcNAc = target: Kdn(a2-3)Gal(b1-4)GlcNAc
# Summary of the method: as §1
# [31] = target: Kdn(a2-3)Gal(b1-4)[Fuc(a1-3)]GlcNAc
# Summary of the method: as §1
# Kdn(a2-6)Gal(b1-4)GlcNAc = target: Kdn(a2-6)Gal(b1-4)GlcNAc
# Summary of the method: as §1
# [32] = target: Man(a1-2)Man(a1-2)Man(a1-3)Man
# Summary of the method: as §1
# [33] = target: Man(a1-2)Man(a1-2)Man(a1-6)[Man(a1-3)]Man
# Summary of the method: as §1
# Man(a1-2)Man(a1-3)Man = target: Man(a1-2)Man(a1-3)Man
# Summary of the method: as §1
# [34] = target: Man(a1-2)Man(a1-3)[Man(a1-2)Man(a1-6)]Man
# Summary of the method: as §1
binder,measurement,setting,value
B1,glycan array binding signal (z-score),GlcNAc(b1-3)Gal(b1-4)Glc,-0.327
same,glycan array binding signal (z-score),[1],-0.324
same,glycan array binding signal (z-score),[2],2.85
same,glycan array binding signal (z-score),[3],3.51
same,glycan array binding signal (z-score),[4],-0.184
same,glycan array binding signal (z-score),[5],-0.208
same,glycan array binding signal (z-score),[6],0.639
same,glycan array binding signal (z-score),[7],2.85
same,glycan array binding signal (z-score),[8],-0.276
same,glycan array binding signal (z-score),[9],1.99
same,glycan array binding signal (z-score),[10],2.1
same,glycan array binding signal (z-score),[11],-0.196
same,glycan array binding signal (z-score),[12],2.08
same,glycan array binding signal (z-score),[13],1.92
same,glycan array binding signal (z-score),[14],-0.19
same,glycan array binding signal (z-score),[15],-0.359
same,glycan array binding signal (z-score),[16],-0.427
same,glycan array binding signal (z-score),[17],-0.222
same,glycan array binding signal (z-score),[18],-0.394
same,glycan array binding signal (z-score),[19],-0.195
same,glycan array binding signal (z-score),[20],-0.316
same,glycan array binding signal (z-score),GlcNAc(b1-3)GalNAc,-0.428
same,glycan array binding signal (z-score),GlcNAc(b1-3)Man,-0.042
same,glycan array binding signal (z-score),[21],-0.374
same,glycan array binding signal (z-score),[22],-0.411
same,glycan array binding signal (z-score),[23],-0.401
same,glycan array binding signal (z-score),[24],-0.361
same,glycan array binding signal (z-score),GlcNAc(b1-4)GlcNAc,0.231
same,glycan array binding signal (z-score),[25],-0.445
same,glycan array binding signal (z-score),[26],-0.372
same,glycan array binding signal (z-score),[27],-0.35
same,glycan array binding signal (z-score),[28],-0.418
same,glycan array binding signal (z-score),[29],-0.407
same,glycan array binding signal (z-score),GlcNAc(b1-6)GalNAc,-0.19
same,glycan array binding signal (z-score),[30],-0.445
same,glycan array binding signal (z-score),Kdn(a2-3)Gal(b1-3)GalNAc,0.106
same,glycan array binding signal (z-score),Kdn(a2-3)Gal(b1-3)GlcNAc,-0.337
same,glycan array binding signal (z-score),Kdn(a2-3)Gal(b1-4)Glc,0.085
same,glycan array binding signal (z-score),Kdn(a2-3)Gal(b1-4)GlcNAc,-0.461
same,glycan array binding signal (z-score),[31],-0.214
same,glycan array binding signal (z-score),Kdn(a2-6)Gal(b1-4)GlcNAc,-0.264
same,glycan array binding signal (z-score),[32],-0.403
same,glycan array binding signal (z-score),[33],-0.293
same,glycan array binding signal (z-score),Man(a1-2)Man(a1-3)Man,-0.321
same,glycan array binding signal (z-score),[34],-0.48

# Source: the supplement of paper PMC8728848
